# Data as given in paper PMC4336329 (PLoS ONE, 2015).
# About 2,200 (0.71%) of roughly 310,000 compounds showed an effect of 50% or more. Effects have a minus sign here. The list shows a part of the results.
# Biological target: human ether-à-go-go-related gene (hERG) potassium channel (human, UniProt Q12809)
# Assay: primary screen, population patch clamp on CHO cells stably expressing hERG
# Sequence of human ether-à-go-go-related gene (hERG) potassium channel (Q12809 whole entry, looked up): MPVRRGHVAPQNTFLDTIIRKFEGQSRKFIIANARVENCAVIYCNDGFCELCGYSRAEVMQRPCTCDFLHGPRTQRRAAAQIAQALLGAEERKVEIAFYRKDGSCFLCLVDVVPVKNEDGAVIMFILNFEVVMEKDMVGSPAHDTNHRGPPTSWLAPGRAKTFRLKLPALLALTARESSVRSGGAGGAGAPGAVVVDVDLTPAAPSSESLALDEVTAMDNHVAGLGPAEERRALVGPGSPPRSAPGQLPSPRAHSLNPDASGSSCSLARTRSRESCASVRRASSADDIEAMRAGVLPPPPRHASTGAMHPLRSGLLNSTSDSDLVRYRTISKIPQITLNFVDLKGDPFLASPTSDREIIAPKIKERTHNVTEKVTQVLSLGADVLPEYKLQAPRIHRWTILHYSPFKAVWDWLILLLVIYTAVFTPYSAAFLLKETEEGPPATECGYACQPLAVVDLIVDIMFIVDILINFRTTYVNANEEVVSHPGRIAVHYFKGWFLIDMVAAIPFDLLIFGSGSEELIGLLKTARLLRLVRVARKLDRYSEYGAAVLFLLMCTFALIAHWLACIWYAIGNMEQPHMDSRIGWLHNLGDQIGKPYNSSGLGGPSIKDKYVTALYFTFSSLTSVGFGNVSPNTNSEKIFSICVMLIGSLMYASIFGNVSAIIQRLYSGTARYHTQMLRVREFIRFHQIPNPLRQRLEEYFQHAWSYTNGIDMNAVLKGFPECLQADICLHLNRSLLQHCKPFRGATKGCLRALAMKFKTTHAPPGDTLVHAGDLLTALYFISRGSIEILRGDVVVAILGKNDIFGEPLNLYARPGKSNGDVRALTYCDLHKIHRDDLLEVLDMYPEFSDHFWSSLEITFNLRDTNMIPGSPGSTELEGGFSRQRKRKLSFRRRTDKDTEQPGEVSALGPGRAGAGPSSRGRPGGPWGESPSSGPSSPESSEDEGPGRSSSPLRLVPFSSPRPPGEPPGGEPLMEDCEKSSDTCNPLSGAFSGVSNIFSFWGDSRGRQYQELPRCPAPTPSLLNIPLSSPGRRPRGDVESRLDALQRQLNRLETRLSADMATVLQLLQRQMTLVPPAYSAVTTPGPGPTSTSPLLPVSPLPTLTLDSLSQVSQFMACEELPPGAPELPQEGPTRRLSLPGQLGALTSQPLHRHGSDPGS
row,SMILES,"hERG current change (%, negative = inhibition) at 1uM [%]"
1,COCCN1CCN(C(=O)c2cc(COc3cc(C)ccc3C)on2)CC1,13.8
2,CC(=O)c1c(C)[nH]c(C(=O)OCc2cccc(Cl)c2)c1C,15.3
3,O=C(NNC(=O)c1csc(-c2cnccc2C(F)(F)F)n1)c1ccc(C(F)(F)F)cc1,10.6
4,Cc1ccc(S(=O)(=O)NCCC(=O)OCC(=O)Nc2cccc(S(=O)(=O)NC3=NCCCCC3)c2)cc1,4.89
5,CCSc1cc(C2C(C#N)=C(N)Oc3n[nH]c(C)c32)c(C)o1 (centres unmarked),12.5
6,CCN1CCN(c2ccc(NC(=O)c3ccco3)cc2Cl)CC1,10.8
7,CSCc1cc(N(C)c2ccccc2)nc(-c2ccccn2)n1,11.8
8,CSc1nc2ccc(NC(=O)C3=NN(c4ccccc4)C(=O)CC3)cc2s1,0.549
9,CCOC(=O)n1c(=O)n(C)c2ccc(Cl)cc21,17.5
10,CCN1CCN(CC(O)COCC2COc3ccccc3O2)CC1.Cl (centres unmarked),2.05
11,C#CCOCCOCCOCCNc1nc(N2CCN(C(=O)Cn3cc(CCC[NH+]=C(N)N)nn3)CC2)nc(N2CCN(C(=O)[C@H]([C@@H](C)CC)n3cc(CCC(=O)O)nn3)CC2)n1.[Cl-],11.2
12,COc1cc(/C(C)=N/NC(=O)Cc2c(C)[nH][nH]c2=O)ccc1O,1.11
13,O=C(CN1C(=O)C2C3C=CC(C3)C2C1=O)Nc1nc2ccccc2[nH]1 (centres unmarked),10.1
14,O=C(CN1C(=O)c2ccc([N+](=O)[O-])cc2C1=O)NCCC1=CCCCC1,13.2
15,COc1ccc(CCNc2ncnc3c2c(C)c(C)n3CCO)cc1OC,4.93
16,O=C(CCCNS(=O)(=O)c1ccccc1)NCc1ccco1,-8.91
17,Cc1ccc(-c2cc3nc(C)cc(C)n3n2)cc1,12.8
18,COc1ccc(C(=O)NC2(C(F)(F)F)C(=O)Nc3c2c(=O)[nH]c(=O)n3CCc2ccc(OC)c(OC)c2)cc1 (centres unmarked),1.11
19,Cc1[nH]n(-c2ccccc2)c(=O)c1N=Nc1cccc(Cl)c1,13

row,SMILES,"hERG current change (%, negative = inhibition) at 1uM [%]"
1,CC(=O)Nc1ccccc1NC(=O)C/C(C)=N/NC(=O)C(=O)N1CCCCC1,8.56
2,O=C(Nc1ccccn1)c1sc2cccc(F)c2c1Cl,9.82
3,CC(OC(=O)c1cccnc1)C(=O)NCc1ccc2c(c1)OCO2 (centres unmarked),0.275
4,O=C(COC(=O)c1ccccc1-c1nc2ccccc2s1)Nc1ccccc1C(F)(F)F,10.4
5,CCCNC(=O)Nc1cccc(NC(C)=O)c1,6.79
6,COc1ccc(C(OCC(O)CN2CCC(O)CC2)c2ccc(OC)cc2)cc1 (centres unmarked),-28.6
7,Cc1ccc2c(c1)NC(=O)C(CC(=O)Nc1ccc(Br)c(C)c1)O2 (centres unmarked),12.5
8,CC(C)NC(=O)CSc1nnc(-c2ccc(S(=O)(=O)N3CCCC3)cc2)n1CC1CCCO1 (centres unmarked),7.15
9,CCc1n(CC(O)COCC2CC=CCC2)c2ccccc2[n+]1C.[I-] (centres unmarked),3.15
10,CC1=C(C(=O)OCc2ccccc2)C(c2ccccc2)NC(=O)N1 (centres unmarked),19.5
11,CN(C(=O)COC(=O)c1ccc2c(=O)n3c(nc2c1)CCC3)c1ccccc1,10.2
12,CCn1c(-c2csc(C(C)C)c2)n[nH]c1=S,15.1
13,NS(=O)(=O)c1ccc(NC(=O)COC(=O)COc2cccc(C(F)(F)F)c2)cc1,28.5
14,CCc1ccc(C(=O)Nc2cc3c(cc2Cl)OCCCO3)cc1,17.8
15,COc1cc(NC(=O)Cc2ccccc2)ccc1NC(=O)c1ccccc1,14
16,O=C(CCCOc1ccccc1)N1CCN(c2ccc(F)cc2)CC1,-4.09
17,CC1(C)CC(=O)C2=C(C1)N(Cc1ccco1)C(=O)NC2(C(F)(F)F)C(F)(F)F,18.8
18,COc1ccccc1CNC(=O)CN(Cc1ccc(Cl)cc1)S(C)(=O)=O,0.297
19,Cc1cc(C)cc(NC(=S)N2CC(C)OC(C)C2)c1 (centres unmarked),17.6

row,SMILES,"hERG current change (%, negative = inhibition) at 1uM [%]"
1,CC1(C)C2CCC(C2)C1(C)NC(=O)CN1CCOCC1.Cl (centres unmarked),7.37
2,CCc1cc(SC#N)cc(CC)c1NC(=O)CCl,14.2
3,CCCCN(C(=O)CCC(=O)Nc1cc(C)on1)C(C(=O)NC1CCCC1)c1ccc(OC)cc1 (centres unmarked),5.02
4,COc1ccc(CCNC(=O)COc2ccc(S(=O)(=O)N3CCOCC3)cc2)cc1OC,2.99
5,O=C(CSCc1cccc(F)c1)N1CCN(c2ccccc2)CC1,-3.08
6,CCN1CCCC1CNC(=O)c1cc2c(-c3cccc(OC)c3)nn(C)c2s1 (centres unmarked),-8.51
7,O=C(NCCO)c1nsnc1NCCCl,5.83
8,COc1cc(OC)c(C(=O)NCC2CCCO2)cc1OC (centres unmarked),15.8
9,O=C1NCC(CN(c2ccccc2)c2ccccc2)O1 (centres unmarked),4.03
10,O=C(Nc1cccnc1)/C(N=Nc1ccc(Cl)c(C(F)(F)F)c1)=C(\O)c1ccccc1,10.6
11,CCOC(=O)N1CCN(C(=O)CSc2ccc(-c3ccc(OC)cc3)nn2)CC1,-0.399
12,Cc1ccc(S(=O)(=O)N2CCC(C(=O)Nc3nnc(C4CCCC4)s3)CC2)cc1,2.27
13,COCCN1C(=O)c2ccc(C(=O)Nc3nccs3)cc2C1=O,1.71
14,O=C(C1=COCCO1)N(Cc1nnc(-c2ccccc2Cl)o1)C1CC1,5.2
15,COc1ccc(S(=O)(=O)N2CCN(C)CC2)cn1,25.6
16,O=C(COc1cccc(-n2cnnn2)c1)N1CCOCC1,3.34
17,CSc1ccccc1C(=O)NCc1ccc(S(N)(=O)=O)cc1,3.08
18,O=C(Nc1nc2ccc(F)cc2s1)c1cccc(S(=O)(=O)N2CCc3ccccc32)c1,8.32
